Assay results: PubChem BioAssay AID485294 (National Center for Advancing Translational Sciences (NCATS), 2010)
The whole screen tested about 370,000 compounds, of which about 150 (0.041%) were called active. This list was built around the results that the source calls inconclusive (neither active nor inactive); the mix of calls is not that of the screen. Calls follow the shape of the dose curve; as a rule, active = well fitted inhibition curve with a large enough effect; inconclusive = small, poorly fitted or top-dose-only effect; inactive = flat fitted curve, though single readings scatter. No potency is given beside an inconclusive call; the fits are too rough.

Biological target: Beta-lactamase (Escherichia coli (strain K12)) (UniProt P00811)
Experiment: qHTS Inhibitors of AmpC Beta-Lactamase (assay with detergent); also: nearly all actives have a fitted effect of over 25% in size
Details: AmpC hydrolysis of nitrocefin, absorbance 480 nm, 0.01% Triton; series mostly up to 114 µM
Procedure, shortened: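 20 mM phosphate pH 7.0 + 0.01% (detergent screen) or 0.0001% Triton X-100; 5.3 nM AmpC reagent; cpd preinc 15 min RT; nitrocefin (800 uM stock) to start; A480 q20 s × 4 min; Activity was normalised to no-enzyme and no-compound control wells.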
Potency is read from the fitted curve at half-maximal effect; tags tell the direction and shape of the fitted curve.

UniProt P00811, sequence (P00811 whole entry, looked up): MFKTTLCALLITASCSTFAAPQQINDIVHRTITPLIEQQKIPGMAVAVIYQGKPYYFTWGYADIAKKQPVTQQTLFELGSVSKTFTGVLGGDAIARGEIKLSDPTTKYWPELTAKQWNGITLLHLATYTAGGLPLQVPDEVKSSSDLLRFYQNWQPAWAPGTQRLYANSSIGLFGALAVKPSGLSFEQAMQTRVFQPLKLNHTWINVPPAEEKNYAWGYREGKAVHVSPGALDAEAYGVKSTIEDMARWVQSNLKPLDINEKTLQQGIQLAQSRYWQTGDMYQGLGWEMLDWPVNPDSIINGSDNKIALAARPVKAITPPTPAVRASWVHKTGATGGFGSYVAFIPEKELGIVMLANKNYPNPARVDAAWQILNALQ

| SMILES | Potency |
| --- | --- |
| CC(=O)c1ccccc1NC(=O)c1cc(S(=O)(=O)N2CCOCC2)ccc1N1CCCC1 | inconclusive [inhibitor, full curve, poor fit] |
| Cc1cccc(Oc2coc3cc(O)ccc3c2=O)c1 | inactive |
| CCOP(=O)(OCC)C(NC(=O)Nc1ccc(Cl)c(Cl)c1)c1ccccc1 (stereo not given) | inconclusive [inhibitor, full curve] |
| N#CC1=C(N)Oc2c(ccc3cccnc23)C1c1ccccc1 (stereo not given) | inactive |
| COc1cccc(-c2cc3c(-n4cccc4)ncnc3o2)c1 | inconclusive [inhibitor, single point] |
| O=C(NCCCN1CCOCC1)c1cc(-c2ccc(O)cc2)on1 | inconclusive [inhibitor, full curve] |
| CC[n+]1c(C)n(C)c2cc(S(=O)(=O)N(C)C)ccc21 | inactive |
| Cn1c[n+](C)cc1/C=N/O | inconclusive [inhibitor, full curve] |
| CCCCCNC(=O)c1ccc2c(=O)n(CC3CCCO3)c(=O)[nH]c2c1 (stereo not given) | inactive |
| CCOC(=O)c1cc(-c2ccc(OC)cc2OC)nn1-c1ccc(C(=O)O)cc1 | inactive |
| Cc1cc(NS(=O)(=O)c2ccc(NC(=O)COc3ccccc3C(C)C)cc2)no1 | inconclusive [inhibitor, full curve, poor fit] |
| COc1ccc(S(=O)(=O)Nc2cccc(-c3ccc(N4CCCCCC4)nn3)c2)cc1OC | inactive |
| COc1ccc(-n2ncc3c(NC(C)C)ncnc32)cc1 | inconclusive [inhibitor, full curve, poor fit] |
| Cn1c(SCC(=O)Nc2ccc3c(c2)OCCO3)nnc1-c1ccccn1 | inconclusive [inhibitor, full curve] |
| CCn1cc(C(=O)NCc2ccc(OC)cc2OC)c(=O)c2ccc(C)nc21 | inconclusive [inhibitor, single point] |
| CC(C)c1ccc(/C=C2\SC(=O)N(CC(=O)NC3C=CS(=O)(=O)C3)C2=O)cc1 (stereo not given) | inactive |
| COC(=O)Cc1c(C)nc2nc(NCc3ccccc3OC)[nH]n2c1=O | inconclusive [inhibitor, full curve, poor fit] |
| CCN(CC)S(=O)(=O)c1ccc(N2CCCC2)c(NC(=O)Cc2cc(OC)c(OC)c(OC)c2)c1 | inactive |
| CC1=NN(Cc2ccccc2)C(=O)C1C(c1ccc(Cl)cc1)C(C#N)C#N (stereo not given) | inconclusive [inhibitor, partial curve, poor fit] |
| O=S(=O)(/N=C/c1c(O)ccc2ccccc12)c1ccccc1 | inactive |
| COc1ccc(NC(=O)CN2CCCC2)cc1 | inconclusive [inhibitor, partial curve] |
| O=C(N1CCOCC1)n1nnc2ccccc21 | active: 44.7 µM |
| C[C@H]1CCC[C@]2(CC(=O)c3cc(F)ccc3O2)C1 | inconclusive [inhibitor, full curve] |
| COCCN(C(=O)c1cccc(N2C(=O)CCC2=O)c1)c1nc(-c2ccc([N+](=O)[O-])cc2)cs1 | inconclusive [inhibitor, full curve] |

| SMILES | Potency |
| --- | --- |
| CCNS(=O)(=O)c1ccc(NC(=O)c2cncc(Br)c2)cc1 | inconclusive [inhibitor, full curve, poor fit] |
| CC(=O)N1Cc2[nH]c3ccccc3c2CC1C(=O)O (stereo not given) | inconclusive [inhibitor, full curve] |
| O=C(CCC(=O)N1CCOc2ccccc21)NCCc1ccccc1 | inconclusive [inhibitor, partial curve, poor fit] |
| Clc1ccc(C2Nc3cccc4cccc(c34)N2)cc1Cl | inconclusive [inhibitor, full curve, poor fit] |
| O=C(Nc1ccc([N+](=O)[O-])cn1)C1CC1 | inconclusive [inhibitor, partial curve, poor fit] |
| COCCn1c(=NC(=O)c2ccc(S(=O)(=O)N3CCCc4ccccc43)cc2)sc2cc(S(C)(=O)=O)ccc21 | inactive |
| CC(=O)Nc1ccc(-c2csc(Nc3cc(C)ccn3)n2)cc1 | inactive |
| CCOc1ccc(-c2cc3c(=O)n(Cc4nc(-c5ccc(OCC)c(OC)c5)oc4C)ccn3n2)cc1Cl | inactive |
| C#CCNc1c2c(nc3ncnn13)CC(C)CC2 (stereo not given) | inactive |
| Cc1cccc2c(=O)cc(CSc3ccccc3NC(=O)c3cccc(Cl)c3)[nH]c12 | inactive |
| Cc1ccc(C(=O)N(CC(=O)Nc2sc(C)c(C)c2C(N)=O)C2CCCC2)cc1 | inconclusive [inhibitor, full curve, poor fit] |
| CCOc1ccccc1NC(=O)CSc1nnc(Cc2ccc(OC)cc2)c(=O)n1N | inconclusive [inhibitor, full curve, poor fit] |
| Cn1cc(S(=O)(=O)N2CCOCC2)cc1C(=O)Nc1ccc(Cl)cc1 | inconclusive [inhibitor, full curve, poor fit] |
| COCC(=O)Nc1nnc(SCC(=O)N2C(C)CCCC2C)s1 (stereo not given) | inconclusive [inhibitor, full curve, poor fit] |
| O=C(N1CCCCC1)C1(S(=O)(=O)c2ccccc2)CC=CC1 | inconclusive [inhibitor, partial curve] |
| Cc1c(C(=O)OC2CCC(C)CC2)[nH]c2c1C(=O)CC(c1ccc(F)cc1)C2 (stereo not given) | inactive |
| COC(=O)C(C)n1cnc2c(nnn2-c2ccc(C)cc2)c1=O (stereo not given) | inconclusive [inhibitor, full curve, poor fit] |
| O=C(NCc1ccco1)c1nc(-c2ccccc2)n(-c2ccccc2)n1 | inconclusive [inhibitor, partial curve] |
| CNC(=O)COc1ncnc2sc(C)c(C)c12 | inconclusive [inhibitor, partial curve] |
| COC(=O)c1ccc(CSc2ccc3nnc(-c4ccc(F)cc4)n3n2)o1 | inactive |
| O=S(=O)(N1CCCCC1)N1CCN(c2ccccc2F)CC1 | inconclusive [inhibitor, full curve, poor fit] |
| COc1ccc(N(CC(=O)Nc2ccccc2C(=O)O)S(=O)(=O)c2ccc(C)c([N+](=O)[O-])c2)cc1 | inactive |
| CCOc1cc(/C=N\NC(=O)c2c(C)nc3ccccn23)ccc1O | inconclusive [inhibitor, full curve, poor fit] |
| COc1ccc(NC(C)=[N+](C)CCNS(=O)(=O)c2ccc(Cl)cc2)cc1Cl | inactive |

| SMILES | Potency |
| --- | --- |
| O=C(NCCCN1CCOCC1)c1ccc(/C=C2\Oc3ccccc3N(Cc3ccccc3F)C2=O)cc1 | inconclusive [inhibitor, full curve, poor fit] |
| Cc1nc2c([N+](=O)[O-])c(C)c(C)cc2[nH]1 | inconclusive [inhibitor, full curve, poor fit] |
| COc1ccc(C(=O)CSc2nnc(C(CO)NC(=O)c3ccc(OC)cc3)n2C)cc1 (stereo not given) | inconclusive [inhibitor, full curve] |
| COc1ccccc1/C=N/NC(=O)c1ccc(CN2C(=O)c3cccc4cccc2c34)cc1 | inconclusive [inhibitor, single point] |
| Cc1cc(C)nc(N/N=C/c2ccccc2OCc2ccccc2)n1 | inactive |
| COc1cccc(C(=O)Nc2ccc3nc(N4CCOCC4)cc(C)c3c2)c1 | inconclusive [inhibitor, full curve, poor fit] |
| CCCN(Cc1ccc(N(CC)CC)cc1)CC1CC1 | inactive |
| Cc1cccc(NS(=O)(=O)c2c(C)[nH]c(C)c2C(=O)N2CCCC2)c1 | inconclusive [inhibitor, single point] |
| CSc1ccc(NC(=O)c2cccnc2)cc1C#N | inconclusive [inhibitor, partial curve] |
| COC(=O)c1ccccc1NC(=O)CSc1n[nH]c(CC(C)C)n1 | inconclusive [inhibitor, full curve, poor fit] |
| COc1cccc(-c2cc(C(=O)Nc3cnn(Cc4ccc(Cl)cc4Cl)c3)no2)c1 | inactive |
| CCCC(=O)Nc1ccc(C(=O)NCCc2ccc(F)cc2)cc1 | inconclusive [inhibitor, partial curve] |
| CCOC(=O)C1CCCN(C(=O)c2ccc(S(=O)(=O)Nc3ccccc3OC)cc2)C1 (stereo not given) | inconclusive [inhibitor, full curve, poor fit] |
| Cc1sc(/N=C/c2ccccc2O)c(C#N)c1C | inconclusive [inhibitor, single point] |
| N/C(Cc1ccc([N+](=O)[O-])cc1)=N\OC(=O)Cc1ccccc1 | inactive |
| CCC(=O)Nc1cccc(NC(=O)CSc2nnc(C3CC3)n2C)c1 | inconclusive [inhibitor, partial curve] |
| COc1ccc(S(=O)(=O)N(CC(=O)Nc2ccc(S(=O)(=O)N3CCOCC3)cc2)c2ccccc2)cc1 | inactive |
| Cc1ccc(Cl)cc1N1CCN(C(=O)C2CCC(=O)N2C(C)C)CC1 (stereo not given) | inconclusive [inhibitor, full curve, poor fit] |
| Cc1ccccc1Nc1nc(N2CCOCC2)nc(N2CCOCC2)n1 | inactive |
| CN(C(=S)NC(=O)c1ccc(F)cc1)C1CCCCC1 | inactive |
| Cn1c(CNS(=O)(=O)c2ccc(Cl)cc2)cc(=O)n(C)c1=O | inconclusive [inhibitor, full curve, poor fit] |
| CCOc1ccc(NC(=O)COC(=O)c2ccc3c(c2)OCCO3)cc1 | inactive |
